Experimental data taken from article PMC7613676.
No constants are given. Whether binding was seen depends on the method and setting. In cells and extracts the contact can be indirect. Some entries that bind do so weakly or less than the wild type. Where a sequence is shown, tags or fusion partners need not be part of it.

What was measured:
Assay in all cases: co-IP; HA immunoprecipitation from 1 mg lysate of transfected Rlim-/y mESCs, overnight at 4 °C; beads washed with lysis buffer containing 500 mM NaCl; immunoblot for FLAG and HA
[1] = target: T1, HA-mRNF12 Δ546-587 (ΔRING) (mouse) (UniProt Q9WTV7)
T1 sequence: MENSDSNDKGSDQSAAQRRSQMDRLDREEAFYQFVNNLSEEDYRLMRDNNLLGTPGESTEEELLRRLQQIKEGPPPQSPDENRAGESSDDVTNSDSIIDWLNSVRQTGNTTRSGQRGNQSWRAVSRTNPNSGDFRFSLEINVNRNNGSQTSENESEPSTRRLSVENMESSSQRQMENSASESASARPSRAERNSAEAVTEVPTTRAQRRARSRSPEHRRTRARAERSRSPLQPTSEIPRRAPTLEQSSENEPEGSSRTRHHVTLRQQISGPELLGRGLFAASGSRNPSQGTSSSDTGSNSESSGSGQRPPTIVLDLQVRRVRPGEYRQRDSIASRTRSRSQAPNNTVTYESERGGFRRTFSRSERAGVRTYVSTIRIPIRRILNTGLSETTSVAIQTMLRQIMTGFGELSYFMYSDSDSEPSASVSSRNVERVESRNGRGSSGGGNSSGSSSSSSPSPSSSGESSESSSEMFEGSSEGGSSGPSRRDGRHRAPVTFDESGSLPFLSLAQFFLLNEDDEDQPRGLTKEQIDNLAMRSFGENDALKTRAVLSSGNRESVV

[2] = target: T2, HA-mRNF12 Δ502-513 (ΔNES) (mouse) (UniProt Q9WTV7)
T2 sequence: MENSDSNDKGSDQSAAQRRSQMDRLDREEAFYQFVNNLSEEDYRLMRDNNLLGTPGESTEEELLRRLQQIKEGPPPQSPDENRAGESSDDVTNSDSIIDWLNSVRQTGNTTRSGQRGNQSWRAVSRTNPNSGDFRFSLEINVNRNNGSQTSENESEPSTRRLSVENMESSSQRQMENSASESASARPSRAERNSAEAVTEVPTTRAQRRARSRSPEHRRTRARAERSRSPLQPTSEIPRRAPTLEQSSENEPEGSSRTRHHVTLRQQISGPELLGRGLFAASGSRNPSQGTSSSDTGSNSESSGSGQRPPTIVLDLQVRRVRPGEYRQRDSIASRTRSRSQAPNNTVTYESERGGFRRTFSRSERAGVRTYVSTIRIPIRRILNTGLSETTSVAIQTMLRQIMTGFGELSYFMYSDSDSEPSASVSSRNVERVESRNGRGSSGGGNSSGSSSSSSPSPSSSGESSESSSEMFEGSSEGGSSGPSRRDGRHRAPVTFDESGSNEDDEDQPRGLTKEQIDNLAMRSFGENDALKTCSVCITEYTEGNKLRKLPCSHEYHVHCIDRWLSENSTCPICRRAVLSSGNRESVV

[3] = target: T3, HA-tagged mouse RNF12 wild type (HA-mRNF12 WT, 1-600) (mouse) (UniProt Q9WTV7)
T3 sequence: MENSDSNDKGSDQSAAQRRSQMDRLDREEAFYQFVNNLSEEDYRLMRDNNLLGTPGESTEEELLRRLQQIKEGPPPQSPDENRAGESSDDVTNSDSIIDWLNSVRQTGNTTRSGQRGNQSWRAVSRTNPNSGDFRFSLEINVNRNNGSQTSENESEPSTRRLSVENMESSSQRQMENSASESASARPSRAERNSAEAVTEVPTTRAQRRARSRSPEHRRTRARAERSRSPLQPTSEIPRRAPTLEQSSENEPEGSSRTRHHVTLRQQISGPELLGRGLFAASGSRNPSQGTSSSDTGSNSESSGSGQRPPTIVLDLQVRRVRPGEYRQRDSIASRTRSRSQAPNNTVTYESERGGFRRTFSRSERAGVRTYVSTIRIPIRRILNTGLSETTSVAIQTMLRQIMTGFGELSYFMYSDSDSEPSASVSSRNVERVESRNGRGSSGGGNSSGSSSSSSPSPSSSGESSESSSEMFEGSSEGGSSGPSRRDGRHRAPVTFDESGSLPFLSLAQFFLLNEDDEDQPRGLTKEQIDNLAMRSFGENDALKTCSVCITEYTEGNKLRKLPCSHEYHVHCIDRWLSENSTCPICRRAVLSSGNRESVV

[4] = target: T4, HA-mRNF12 Δ326-423 (ΔBR) (mouse) (UniProt Q9WTV7)
T4 sequence: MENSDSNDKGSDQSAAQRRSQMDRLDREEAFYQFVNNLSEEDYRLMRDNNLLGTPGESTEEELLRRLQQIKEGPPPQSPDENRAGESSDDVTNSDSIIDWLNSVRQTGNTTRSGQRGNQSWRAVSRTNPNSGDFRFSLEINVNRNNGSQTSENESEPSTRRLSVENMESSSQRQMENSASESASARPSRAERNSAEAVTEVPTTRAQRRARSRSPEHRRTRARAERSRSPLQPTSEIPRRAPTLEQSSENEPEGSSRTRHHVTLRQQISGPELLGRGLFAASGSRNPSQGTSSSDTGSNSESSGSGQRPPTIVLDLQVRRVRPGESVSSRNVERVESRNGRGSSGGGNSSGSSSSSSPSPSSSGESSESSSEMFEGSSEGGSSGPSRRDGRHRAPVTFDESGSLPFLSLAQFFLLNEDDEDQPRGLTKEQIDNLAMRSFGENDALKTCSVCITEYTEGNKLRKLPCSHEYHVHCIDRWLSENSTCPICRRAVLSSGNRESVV

[5] = target: T5, HA-mRNF12 Δ1-206 (ΔN) (mouse) (UniProt Q9WTV7)
T5 sequence: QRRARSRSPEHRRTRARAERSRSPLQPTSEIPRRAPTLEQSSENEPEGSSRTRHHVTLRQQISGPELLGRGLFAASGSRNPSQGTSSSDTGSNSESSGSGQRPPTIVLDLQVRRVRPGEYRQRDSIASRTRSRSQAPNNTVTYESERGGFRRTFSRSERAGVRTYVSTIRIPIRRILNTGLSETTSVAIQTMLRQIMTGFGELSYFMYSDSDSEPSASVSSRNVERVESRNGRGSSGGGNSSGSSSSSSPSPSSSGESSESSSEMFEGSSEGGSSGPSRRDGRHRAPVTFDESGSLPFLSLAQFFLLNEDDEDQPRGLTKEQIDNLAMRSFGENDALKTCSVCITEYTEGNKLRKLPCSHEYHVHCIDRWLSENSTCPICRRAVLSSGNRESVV

binding [1]: binds
binding [2]: binds
binding [3]: binds
binding [4]: no binding
binding [5]: binds
B1: FLAG-tagged human USP26 (FLAG-hUSP26) (enzyme, UniProt Q9BXU7 1-913)
chain: MAALFLRGFVQIGNCKTGISKSKEAFIEAVERKKKDRLVLYFKSGKYSTFRLSDNIQNVVLKSYRGNQNHLHLTLQNNNGLFIEGLSSTDAEQLKIFLDRVHQNEVQPPVRPGKGGSVFSSTTQKEINKTSFHKVDEKSSSKSFEIAKGSGTGVLQRMPLLTSKLTLTCGELSENQHKKRKRMLSSSSEMNEEFLKENNSVEYKKSKADCSRCVSYNREKQLKLKELEENKKLECESSCIMNATGNPYLDDIGLLQALTEKMVLVFLLQQGYSDGYTKWDKLKLFFELFPEKICHGLPNLGNTCYMNAVLQSLLSIPSFADDLLNQSFPWGKIPLNALTMCLARLLFFKDTYNIEIKEMLLLNLKKAISAAAEIFHGNAQNDAHEFLAHCLDQLKDNMEKLNTIWKPKSEFGEDNFPKQVFADDPDTSGFSCPVITNFELELLHSIACKACGQVILKTELNNYLSINLPQRIKAHPSSIQSTFDLFFGAEELEYKCAKCEHKTSVGVHSFSRLPRILIVHLKRYSLNEFCALKKNDQEVIISKYLKVSSHCNEGTRPPLPLSEDGEITDFQLLKVIRKMTSGNISVSWPATKESKDILAPHIGSDKESEQKKGQTVFKGASRRQQQKYLGKNSKPNELESVYSGDRAFIEKEPLAHLMTYLEDTSLCQFHKAGGKPASSPGTPLSKVDFQTVPENPKRKKYVKTSKFVAFDRIINPTKDLYEDKNIRIPERFQKVSEQTQQCDGMRICEQAPQQALPQSFPKPGTQGHTKNLLRPTKLNLQKSNRNSLLALGSNKNPRNKDILDKIKSKAKETKRNDDKGDHTYRLISVVSHLGKTLKSGHYICDAYDFEKQIWFTYDDMRVLGIQEAQMQEDRRCTGYIFFYMHNEIFEEMLKREENAQLNSKEVEETLQKE
